# Experimental data from PubChem BioAssay AID1476 (National Center for Advancing Translational Sciences (NCATS), 2009).
# The campaign covered roughly 200,000 compounds. About 4,500 (2.2%) were called active. This list was built around the results that the source calls inconclusive (neither active nor inactive); the mix of calls is not that of the screen. The call rests on the fitted dose curve; in most records, active means well fitted inhibition curve with a large enough effect; inconclusive means small, poorly fitted or top-dose-only effect, or effect the other way; inactive means flat fitted curve, though single readings scatter. Potencies of inconclusive entries are doubtful fits and often do not repeat.
# Target: Cruzipain (Trypanosoma cruzi) (UniProt P25779)
# Assay: qHTS Assay for Promiscuous and Specific Inhibitors of Cruzain (without detergent); further: nearly all actives have a fitted effect of over 40% in size;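 on max response, negative = inhibition: plate controls were enzyme without inhibitor for no effect and buffer without enzyme for full effect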
# Conditions: purified cruzain, Z-FR-AMC fluorescence, no detergent
# Summary of the method: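 Detergent-free condition (0.00005% Triton X-100) in acetate buffer pH 5.5 with DTT. 1.5 nM enzyme and compound were pre-mixed 15 min, then 2 uM Z-FR-AMC substrate added; reaction progress from fluorescence change between first and third reads (60 s).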
# Potency means the concentration at half of the fitted maximal effect; tags describe the fitted curve by direction and shape.
# Sequence of UniProt P25779 (P25779 whole entry, looked up): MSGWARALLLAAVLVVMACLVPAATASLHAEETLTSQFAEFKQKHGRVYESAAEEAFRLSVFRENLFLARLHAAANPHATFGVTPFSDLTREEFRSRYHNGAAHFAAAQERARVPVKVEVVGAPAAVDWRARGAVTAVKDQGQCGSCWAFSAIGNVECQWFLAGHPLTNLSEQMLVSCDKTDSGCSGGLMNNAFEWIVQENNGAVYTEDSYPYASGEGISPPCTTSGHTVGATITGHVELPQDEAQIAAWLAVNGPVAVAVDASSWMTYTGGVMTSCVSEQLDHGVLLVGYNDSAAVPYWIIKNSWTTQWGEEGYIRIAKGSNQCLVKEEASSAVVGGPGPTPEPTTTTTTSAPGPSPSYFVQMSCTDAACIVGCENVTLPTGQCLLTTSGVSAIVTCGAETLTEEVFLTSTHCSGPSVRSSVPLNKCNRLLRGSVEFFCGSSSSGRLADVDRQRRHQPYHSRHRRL
Structure (SMILES),Potency,"max response, negative = inhibition"
O=C1OC2(c3cc(Br)c(O)c(Br)c3Oc3c2cc(Br)c(O)c3Br)c2c(Cl)c(Cl)c(Cl)c(Cl)c21,"inconclusive: 31.6 µM [activator, partial curve]",
O=C(/C=C/c1ccccc1)NC(=S)NNC(=O)Cc1cccs1,"inconclusive: 39.8 µM [inhibitor, single point]",
CCCCN(Cc1cccs1)S(=O)(=O)c1cc(-c2cc(C)no2)ccc1C,,inactive: -23.7%
COc1ccccc1N1CCN(C(=O)c2c(-c3c(Cl)cccc3Cl)noc2C)CC1,"inconclusive: 39.8 µM [activator, single point]",
O=C(Nc1ccc(Br)cc1F)c1cc(S(=O)(=O)NC2CCCC2)ccc1F,,inactive: 0.137%
Cc1sc2ncn(CC(=O)Nc3ccc(F)cc3Cl)c(=O)c2c1S(=O)(=O)N1CCN(c2ncccn2)CC1,,inactive: 7.79%
O=c1c2c(-c3ccccc3)csc2ncn1/N=C/c1c2ccccc2cc2ccccc12,active: 10 µM,
Nc1ccc(C2=Nc3cccc4cccc(c34)N2)cc1,active: 3.16 µM,
CCn1c(SCC(=O)N2CCCc3ccccc32)nnc1-c1ccoc1C,,inactive: -5.15%
CN(C)c1ccc(CNC(=O)c2cnc3sc(N4CCCC4)nn3c2=O)cc1,"inconclusive: 0.158 µM [activator, single point]",
COc1cc(NC(=O)c2cc(Cl)ccc2Cl)ccc1NC(=O)c1cc2ccccc2o1,active: 15.8 µM,
COc1ccccc1-c1nnc(C2CCN(C(=O)c3cccc(Cl)c3)CC2)o1,,inactive: -4.94%
Cc1cccc(C(c2sc3nc(-c4ccco4)nn3c2O)N2CCN(Cc3ccccc3)CC2)c1 (stereo not drawn),,inactive: 24.6%
O=C(Nc1ccc(OC(F)(F)C(F)F)c(NC(=O)c2cccc(F)c2)c1)c1cccc(F)c1,,inactive: -1.53%
Cc1[nH]nc(-c2ccc(OCc3cnn(-c4ccccc4)c3)cc2O)c1Oc1ccccc1F,active: 20 µM,
Cc1cc(C)nc(Nc2ccc(N3CCCC3)cc2)n1,active: 31.6 µM,
CCOc1ccc2nc(NC(=O)CSc3nc4cccnc4n3C)sc2c1,"inconclusive: 31.6 µM [activator, partial curve]",
NC(N)=NCCN=C(N)N,,inactive: 8.28%
O=C(N/N=C/C=C\c1ccccc1[N+](=O)[O-])c1cc(-c2ccccc2)nc2ccccc12,"inconclusive: 39.8 µM [inhibitor, single point]",
CCCN(C(=O)C(=O)Nc1ccc2nc3n(c(=O)c2c1)CCCCC3)c1ccc(OCC)cc1,"inconclusive: 39.8 µM [activator, single point]",
CC(C)OC(=O)[C@@H]1CC[C@H](C)[C@@H](CCC[C@@H]2C[C@@H](O)C[C@H](CC#N)O2)O1,,inactive: 17.1%
O=C(Cn1cnc2c(cnn2-c2ccccc2)c1=O)NCc1ccccc1,"inconclusive: 39.8 µM [inhibitor, single point]",

Structure (SMILES),Potency,"max response, negative = inhibition"
O=C(Nc1ccc2nc(-c3cccs3)[nH]c2c1)c1ccco1,active: 20 µM,
CCOc1ccc(OCc2ccc(C(=O)Nc3cc(OC)c(OC)c(OC)c3)o2)cc1,"inconclusive: 20 µM [activator, partial curve]",
Cc1nc2ncnn2c(N2CCCC(C(=O)Nc3ccc4c(c3)CCC4)C2)c1C (stereo not drawn),"inconclusive: 31.6 µM [activator, single point]",
CCOc1ccc(N2C(=O)C3C(c4ccccc4)=NN(c4ccccc4)C3C2=O)cc1 (stereo not drawn),active: 20 µM,
Cc1cc2c(C)c(C)c(=O)[nH]c2cc1N,"inconclusive: 39.8 µM [inhibitor, single point]",
Cc1ccc(C2N(C)c3ccccc3-c3nc4ccccc4n32)o1 (stereo not drawn),"inconclusive: 39.8 µM [activator, single point]",
CC(C)c1ccc(NC(c2nnc(-c3ccccc3)o2)c2ccc(F)cc2Cl)cc1 (stereo not drawn),,inactive: -1.79%
N#C/C(=C\c1ccc(N2CCCCC2)c([N+](=O)[O-])c1)c1nn(-c2ccccc2)c(N)c1C#N,active: 20 µM,
COc1ccc(NC(=O)CSc2nnc(Cc3cccn3C)n2CCc2ccccc2)cc1OC,"inconclusive: 31.6 µM [activator, single point]",
Cc1cc(C(=O)OCC(=O)c2cccc([N+](=O)[O-])c2)c2ccccc2n1,"inconclusive: 39.8 µM [activator, single point]",
CCOC(=O)c1ccc(S(=O)(=O)N2CCN(CC(=O)NC(=O)NC3CCCCC3)CC2)cc1,"inconclusive: 20 µM [activator, partial curve]",
O=C(Nc1cccc(-c2nc3ncccc3o2)c1)c1cc2ccccc2o1,"inconclusive: 39.8 µM [activator, single point]",
CN1/C(=C/C2CC(=O)N(c3ccc([N+](=O)[O-])cc3)C2=O)C(C)(C)c2ccccc21 (stereo not drawn),"inconclusive: 31.6 µM [inhibitor, single point]",
O=c1cc(-c2ccccc2)nc2nc(-c3ccco3)[nH]n12,active: 0.398 µM,
COc1cccc(-n2nc(C(=O)Nc3ccc4c(c3)OCO4)c3ccccc3c2=O)c1,"inconclusive: 25.1 µM [inhibitor, single point]",
COc1cc(C(=O)N2CCN(Cc3ccccc3C(F)(F)F)CC2)cc(OC)c1OC,"inconclusive: 25.1 µM [activator, partial curve]",
CC(C)c1ccc(/C=N/NC(=O)CN(c2cccc(Cl)c2Cl)S(C)(=O)=O)cc1,"inconclusive: 25.1 µM [activator, single point]",
CC(C)(C)OC(=O)N1CCC(c2c(C(=O)NCCN3CCCC3)cnn2-c2ccc(Cl)cc2)CC1,,inactive: 21.2%
CCOC(=O)c1nn(-c2ccccc2C)c2nc(Nc3ccccc3)cc(=O)n12,"inconclusive: 31.6 µM [activator, single point]",
CCCc1cc2c(n1Cc1cccc(Cl)c1)C(C)C1CN(C(=O)c3ccccc3)C(C)(C(=O)OC)C21 (stereo not drawn),"inconclusive: 31.6 µM [activator, single point]",
Cc1cccc(CNc2ncncc2-c2ccccc2C)c1,,inactive: 2.6%
